Laboratory results as given in patent publication US9650358B2 (priority 2013, dated 2017).

Each compound was assayed on H929 cells (assay: cells). Conditions: Homo sapiens, NCI-H929, 24 h, read-out: H929 viability EC50.

For `O=C(Nc1cc(-c2cnc3ncn(Cc4cccc(F)c4)c3n2)c(Cl)cn1)[C@@H]1CCCNC1` [Example 218, (3R)—N-{5-chloro-4-[1-(3-fluorobenzyl)-1H-imidazo[4,5-b]pyrazin-6-yl]pyridin-2-yl}piperidine-3-carboxamide], which EC50 is on record?
The EC50 was 190 nM.

For `O=C(Nc1cc(-c2ccc3c(c2)N(CC(=O)N2CCOCC2)CC3)c(Cl)cn1)C1CCCNC1` (stereo not drawn) [Example 220, N-(5-chloro-4-{1-[2-(morpholin-4-yl)-2-oxoethyl]-2,3-dihydro-1H-indol-6-yl}pyridin-2-yl)piperidine-3-carboxamide], which EC50 is on record?
The EC50 was 2300 nM.

`N#Cc1cn(CC2CCOCC2)c2cc(-c3cc(NC(=O)[C@@H]4CCCNC4)ncc3Cl)cnc12` [Example 222, (3R)—N-{5-chloro-4-[3-cyano-1-(tetrahydro-2H-pyran-4-ylmethyl)-1H-pyrrolo[3,2-b]pyridin-6-yl]pyridin-2-yl}piperidine-3-carboxamide] was tested. Which EC50 did it give?
The EC50 was greater than 10000 nM.

For `N#CC1(Cn2cnc3ccc(-c4cc(NCCO)ncc4Cl)cc32)CCOCC1` [Example 223, 4-[(6-{5-chloro-2-[(2-hydroxyethyl)amino]pyridin-4-yl}-1H-benzimidazol-1-yl)methyl]tetrahydro-2H-pyran-4-carbonitrile], which EC50 is on record?
The EC50 was 6000 nM.

How did the EC50 turn out when `Fc1cccc(Cn2cnc3ccc(-c4cc(N[C@H]5CC[C@H](NCc6cccnc6)CC5)ncc4Cl)cc32)c1` [Example 226, trans-N-{5-chloro-4-[1-(3-fluorobenzyl)-1H-benzimidazol-6-yl]pyridin-2-yl}-N′-(pyridin-3-ylmethyl)cyclohexane-1,4-diamine] was run?
Its EC50 is 180 nM.

Which EC50 does the source give for `Fc1cccc(Cn2cnc3ccc(-c4cc(N[C@H]5CC[C@H](NCc6ccc7c(c6)OCO7)CC5)ncc4Cl)cc32)c1` [Example 228, trans-N-(1,3-benzodioxol-5-ylmethyl)-N′-{5-chloro-4-[1-(3-fluorobenzyl)-1H-benzimidazol-6-yl]pyridin-2-yl}cyclohexane-1,4-diamine] here?
Its EC50 is 380 nM.

How did the EC50 turn out when `Fc1cccc(Cn2cnc3ccc(-c4cc(N[C@H]5CC[C@H](NCc6nccs6)CC5)ncc4Cl)cc32)c1` [Example 229, trans-N-{5-chloro-4-[1-(3-fluorobenzyl)-1H-benzimidazol-6-yl]pyridin-2-yl}-N′-(1,3-thiazol-2-ylmethyl)cyclohexane-1,4-diamine] was run?
The EC50 was 160 nM.

How did the EC50 turn out when `Fc1cccc(Cn2cnc3ccc(-c4cc(N[C@H]5CC[C@H](NCCN6CCOCC6)CC5)ncc4Cl)cc32)c1` [Example 231, trans-N-{5-chloro-4-[1-(3-fluorobenzyl)-1H-benzimidazol-6-yl]pyridin-2-yl}-N′-[2-(morpholin-4-yl)ethyl]cyclohexane-1,4-diamine] was run?
Its EC50 is 140 nM.

With `CC(C)(CN[C@H]1CC[C@H](Nc2cc(-c3ccc4ncn(Cc5cccc(F)c5)c4c3)c(Cl)cn2)CC1)N1CCOCC1` [Example 232, trans-N-{5-chloro-4-[1-(3-fluorobenzyl)-1H-benzimidazol-6-yl]pyridin-2-yl}-N′-[2-methyl-2-(morpholin-4-yl)propyl]cyclohexane-1,4-diamine] as the compound, how does the EC50 read?
The EC50 was 190 nM.

With `Fc1cccc(Cn2cnc3ccc(-c4cc(N[C@H]5CC[C@H](NCC6CC6)CC5)ncc4Cl)cc32)c1` [Example 235, trans-N-{5-chloro-4-[1-(3-fluorobenzyl)-1H-benzimidazol-6-yl]pyridin-2-yl}-N′-(cyclopropylmethyl)cyclohexane-1,4-diamine] as the compound, how does the EC50 read?
The EC50 was 150 nM.

How did the EC50 turn out when `COCC(COC)N[C@H]1CC[C@H](Nc2cc(-c3ccc4ncn(Cc5cccc(F)c5)c4c3)c(Cl)cn2)CC1` [Example 238, trans-N-{5-chloro-4-[1-(3-fluorobenzyl)-1H-benzimidazol-6-yl]pyridin-2-yl}-N-(1,3-dimethoxypropan-2-yl)cyclohexane-1,4-diamine] was run?
Its EC50 is 110 nM.

With `Fc1cccc(Cn2cnc3ccc(-c4cc(N[C@H]5CC[C@H](NCCOc6ccccc6)CC5)ncc4Cl)cc32)c1` [Example 239, trans-N-{5-chloro-4-[1-(3-fluorobenzyl)-1H-benzimidazol-6-yl]pyridin-2-yl}-N′-(2-phenoxyethyl)cyclohexane-1,4-diamine] as the compound, how does the EC50 read?
Its EC50 is 230 nM.
